B1: LINE1-mini (parent)
chain: GGCAGAGCUCAACACAGCGUGGCAAAGUGGCUGUGGCUAGACUGCC

Read counts are not given, so values of variants with three or more changes are uncertain.

Variants of B1 are the subject of this data set. Briefly: self-cleavage, relative activity (ratio to wild type); higher = more cleavage; in vitro, sequencing; the parent is a self-cleaving ribozyme.
Regarding GGCAAAGCUAAACGCAGCGUGGCUAAGUGGCUGUGGCUAGACUGCC [G5A C10A A14G A24U], the self-cleavage is 0.01.

Take GGCAGAGCUCAACACAGCGUGGUAAAGUGGCUGUGGCCAGAUUGCC [C23U U38C C42U]: the self-cleavage was 0.09.

As to GGCAGAGCUAAACAAAGGGUGGCCAAGUGGCUGAGGCUAGACUGCC [C10A C15A C18G A24C U34A], the self-cleavage is 0.02. In the case of GGCAGAGCUCAACACACCGUGGGAAAGUGUCUGUGGUUAGACUGCC [G17C C23G G30U C37U] it was 0.05; in that of GACAGAGCUCAACACAGCGUGGCAAAGUGGCCCUGGCUAGACUGCC [G2A U32C G33C], 0.07. Next, GGCAGAGCUCAACUCAGCGUGGCAAAAUGGCAGUGGCUAGACUGCC [A14U G27A U32A]: 0.07. In the case of GGCAGAGCUCAACACAGCGUGGCAAAGUGGGUAUGACUAGACUGCC [C31G G33A G36A] it was 0.1. Consider GGCACAGCUCAACACAGCGUGGUAAAGUGGCUGUGGCUAGAACGCC [G5C C23U C42A U43C], for which the self-cleavage was 0.02.

Take GGCAGAGCUCAACACAGCGUGGAAAAGUCGCUGUGGCUAGACUGAC [C23A G29C C45A]: the self-cleavage was determined as 0.23. For GUCAGAGCUCAACACAGCGUGUCAAAGUGGCUGUGGCUAGAAUGCC [G2U G22U C42A], the self-cleavage was 0.03. Regarding GGCAGAGCUCAACGAAGCCUGGCAAAGUGGCUGUGGCCAGACUGCC [A14G C15A G19C U38C], the self-cleavage came to 0.14. With GGCAGAGCUCACCACAGCGUGGCAAAGAGGCGGUGGCUAGACUGCC [A12C U28A U32G], the self-cleavage was determined as 0.02. GGCAGCGCUCAACACAGCGUGGCAAAGUGGAUGUGGCUUGACUGCC [A6C C31A A39U]: the self-cleavage was 0.02. Regarding GGCAGAGCUCAUUACAGCGUGUCGAAGUGGUUGUGGCUAAACAGCC [A12U C13U G22U A24G C31U G40A U43A], the self-cleavage stood at 0.03. Next, GGCAGAGCUCAACACAGCUUGGCAAUGGGGCUGUGGCUAGACUGCC [G19U A26U U28G]: 0.09; GGAAGAGCUCAACACAGCGUGGCAACGUGGCUGUGGCUAGUCUGCA [C3A A26C A41U C46A]: 0.44. Next, GGCAGAGCUCAUCACAGCGUGGCAAAGAGGCGGUGGCUAGACUGCC [A12U U28A U32G]: 0.06; GGCAGAGCUCAACUCAGCGUGUCAACGUGGCUGUGGCUAGACUUCC [A14U G22U A26C G44U]: 0.13. Regarding GGCAGAGCUCAACAGAGCGUGGCAAAGUGCCUGUGGAUAGACUGCC [C15G G30C C37A], the self-cleavage was 0.02. Next, GGCAGACCUCAACACAGCGUGUCAAAGUGGCUGUGGCUAGACCGCC [G7C G22U U43C]: 0.04. On to GGCAGAGCUCAACACAGCUUGGCAACUUGGCUGUGGCUAGACUGCC [G19U A26C G27U], for which the self-cleavage stood at 0.2.

GGCAGAGCUCAACACAGCAUGGCAAAUUGGCUGUGGCUCAACUGCU [G19A G27U A39C G40A C46U]: the self-cleavage was found to be 0.02.

For AGCACAGCUCAACACAGCGUGGAAAAGUGGCUGUUGCUAGACUGCC [G1A G5C C23A G35U], the self-cleavage was found to be 0.07. Next, GGCAGAGUUCAACACAGCGUGGCAAAGUGGCUGUGACUAGAGUCCC [C8U G36A C42G G44C]: 0.21. Next, GGCAGAGCUCAACACAGCGUGCCAAUGUGGCUGUGCCUAGACGGCC [G22C A26U G36C U43G]: 0; GGCAGAGCUCAACACAGCGUUGAUAAGUGGCUCUGGCUAGACUGCC [G21U C23A A24U G33C]: 0.03. Turning to GGCAGAGCUCAACACCGCGUGGAAAAGUGGCUGUCGCUAUACUGCC [A16C C23A G35C G40U], the self-cleavage was 0.04. Next, GGCAGAGCUCAAAACAGCCUGGCAAAGUGGCUGUGGCUAGACUACC [C13A G19C G44A]: 0.11; GGCAGAGCUCAAAUCAGCGUGGCAAGGUGGCUGUGCCUAGACUGCC [C13A A14U A26G G36C]: 0.01. In the case of AGCAGAGCUCAACACAGCGUGGCAAUGUGGCUGUGACUAGACUGCC [G1A A26U G36A] it was 0.17. Next, GGCAGAGCUCAACACAGCGUGGCAAAGUUGCUUUGGCAAGACUGCC [G29U G33U U38A]: 0.53; GGAAGAGCUCAACACAGCGUGGCAAAUUGGCUGGGGCUAGACUGCC [C3A G27U U34G]: 0.04; UGCAGAGCUCAACACAGCGUGGCAAAGUUGCUGUGGCUACACUGCC [G1U G29U G40C]: 0.02. GGCAGAGCUCAAAACAGCGUGGCAAACUGGCUGUGGCUACACAGCC [C13A G27C G40C U43A]: the self-cleavage was 0.04.

On to GGCAGAGCGAAACACAGCGUGGCAAAGUGGCUGUUGCUAUACUGCC [U9G C10A G35U G40U], for which the self-cleavage is 0.01.

On to GGCAGAGCUCAACACAACGUGCCAAAGUGGCUGUUGCGAGACUGCC [G17A G22C G35U U38G], for which the self-cleavage is 0.01. Take GGCAGAGCUCAAGACAGCGUGGCAAAAUGGCUGUGGCUAUACUGCC [C13G G27A G40U]: the self-cleavage was 0.12. Next, GGCAUAGCUCAACACAGAGUGGCAAACUGCCUGUGGCUAGACUGCC [G5U C18A G27C G30C]: 0.02; GGCAGAGCUCAACAGAGCGUGGCCACGUGGCUGUGUCUAGACUGCC [C15G A24C A26C G36U]: 0.1. In the case of GACAGAGCUCAACACAGCGUUGCAAAGUGGCUGUGUCGAGACUGCC [G2A G21U G36U U38G] it was 0.06. In the case of GGCAGAGCUGAACACAGCGUGGCAAAGUGGCUAUGGGUAAACUGCC [C10G G33A C37G G40A] it was 0.02; in that of GGCAGAGGUCAACACAGCGUGGCAAAGAGGCAGUGGCUAGAAUGCC [C8G U28A U32A C42A], 0.02. With GGCAGAGGUCAACUCAGCGUGGCAAAGUGGCUUUGGCUAGACUGCC [C8G A14U G33U], the self-cleavage came out at 0.03. Consider GGCAGAGCUCAACACAGCCUGGCAAAGUGGCUGAGGCUAGACUGCG [G19C U34A C46G], for which the self-cleavage stood at 0.19. In the case of GGCAGACCUCUACAGAGCGUGGCAAAGUGGCUGUGGCUAGCCUGCC [G7C A11U C15G A41C] it was 0; in that of UGCAGAUCUCAGCACAGCGUGGCAAAGUGGCUGUGGCUAGACUGCC [G1U G7U A12G], 0.02. Next, GGCAAAGCUCAGCACAGCGUGGCAAAGUGCCUGUGGCUAGACUGCC [G5A A12G G30C]: 0.06; GGCAGAGCUCAACGGAGCGUGGCAAAGUGGCUGAGGCUAGACUGAC [A14G C15G U34A C45A]: 0.01; GGCAGAGCUUAAUAUAGCGUGGCAAUGUGGCAGUGGCUAGACCGCC [C10U C13U C15U A26U U32A U43C]: 0.02. In the case of GGCAGAGCUCAUCACCGCGUCGCAAAGAGCCUGUAGCUAGACUGCC [A12U A16C G21C U28A G30C G35A], the self-cleavage turned out to be 0.02. In the case of GGCAAAGCUCAACCCAGCGUCGCAACGUGGCUGUGGCUAGACUGUC [G5A A14C G21C A26C C45U] it was 0.15; in that of GGCAGAGCACAACACAGCGAGGCAACUUGGCCGUGGCUAUACUGCC [U9A U20A A26C G27U U32C G40U], 0.07. Next, GGCAGAGCUCAACACAGCCUGGCACAGUGGCUGUGGCUAGACUGGA [G19C A25C C45G C46A]: 0.05; GGCAGAGCCCAACACAGCUUGGCGAAGUGACUGUGGCUAGACUGCC [U9C G19U A24G G30A]: 0.01. Turning to GGCAGAGCUCAACACAGCGUGGCAAUGUGGGUGUGGCUAAACUGCC [A26U C31G G40A], the self-cleavage came out at 0.02. As for GGCAGAGCACAACACACCGUGGCAAAGUGGCUGGGGCUAGACUGCC [U9A G17C U34G], the self-cleavage was found to be 0.06.
